Experimental data reported in PMC4336329 (PLoS ONE, 2015).
The whole screen tested about 310,000 compounds, of which about 2,200 (0.71%) showed an effect of 50% or more. The effect is printed as a negative number. The list shows a part of the results.

These compounds were tested against human ether-à-go-go-related gene (hERG) potassium channel (human, UniProt Q12809) (assay: primary screen, population patch clamp on CHO cells stably expressing hERG).
human ether-à-go-go-related gene (hERG) potassium channel, sequence (Q12809 whole entry, looked up): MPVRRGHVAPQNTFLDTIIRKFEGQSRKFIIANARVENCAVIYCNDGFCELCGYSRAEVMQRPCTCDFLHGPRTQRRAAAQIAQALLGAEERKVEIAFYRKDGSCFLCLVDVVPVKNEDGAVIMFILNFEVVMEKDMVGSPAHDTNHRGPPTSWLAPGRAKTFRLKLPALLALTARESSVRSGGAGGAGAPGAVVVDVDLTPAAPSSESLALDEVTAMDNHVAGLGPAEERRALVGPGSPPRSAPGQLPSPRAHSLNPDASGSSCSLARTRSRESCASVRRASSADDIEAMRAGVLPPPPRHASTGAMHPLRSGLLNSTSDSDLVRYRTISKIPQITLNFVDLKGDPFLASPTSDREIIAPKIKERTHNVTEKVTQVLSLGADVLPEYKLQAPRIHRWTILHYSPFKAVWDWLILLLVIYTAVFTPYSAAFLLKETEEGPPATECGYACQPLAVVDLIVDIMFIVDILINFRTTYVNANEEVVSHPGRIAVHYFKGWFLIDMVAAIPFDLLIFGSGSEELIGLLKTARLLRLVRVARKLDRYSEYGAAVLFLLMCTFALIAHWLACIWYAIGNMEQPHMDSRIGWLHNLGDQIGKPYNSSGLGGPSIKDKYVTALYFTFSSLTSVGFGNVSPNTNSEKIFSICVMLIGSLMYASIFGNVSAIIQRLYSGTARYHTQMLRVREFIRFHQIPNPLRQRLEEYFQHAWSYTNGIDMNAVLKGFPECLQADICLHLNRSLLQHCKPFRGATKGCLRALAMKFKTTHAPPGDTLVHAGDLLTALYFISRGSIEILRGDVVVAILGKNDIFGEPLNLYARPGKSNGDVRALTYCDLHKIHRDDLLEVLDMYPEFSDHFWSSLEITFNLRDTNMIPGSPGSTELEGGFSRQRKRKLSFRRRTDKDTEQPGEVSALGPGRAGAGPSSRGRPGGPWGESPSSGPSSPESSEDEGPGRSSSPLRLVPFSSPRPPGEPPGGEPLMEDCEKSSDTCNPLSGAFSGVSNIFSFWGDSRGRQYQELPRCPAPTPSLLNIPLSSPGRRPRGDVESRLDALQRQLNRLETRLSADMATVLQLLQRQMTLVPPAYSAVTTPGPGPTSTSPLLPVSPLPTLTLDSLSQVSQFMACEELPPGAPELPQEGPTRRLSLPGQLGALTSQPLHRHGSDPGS

Row | SMILES | hERG current change (%, negative = inhibition) at 1uM [%]
1 | O=C(CNC(=O)c1ccccc1)OCc1nnc(-c2ccccc2)o1 | 17.4
2 | O=C1CCN(Cc2ccccc2)CCN1[C@H](CSc1ccccc1)Cc1ccccc1 | -39.1
3 | CCOC(=O)N1CCN(C(=O)COCc2cc(-c3ccc4c(c3)OCO4)on2)CC1 | -0.101
4 | O=C(Cn1cc(S(=O)(=O)Cc2cccc([N+](=O)[O-])c2)c2ccccc21)N1CCOCC1 | 12.2
5 | Cc1ccccc1NC(=O)/C(C#N)=C\c1ccsc1 | 8.01
6 | CCN(CCCNC(=O)CCn1c(=O)[nH]c2ccccc2c1=O)c1cccc(C)c1 | 5.59
7 | Cc1ccc2[nH]c(CCN(C)C)c(CC#N)c2c1 | -23.7
8 | CCCCNC(=O)c1ccc(NC(=O)CC2SC(N3CCCC3)=NC2=O)cc1 (centres unmarked) | 18.3
9 | Cc1noc(NS(=O)(=O)c2ccc(NC(=O)CSc3n[nH]c(-c4ccccc4)n3)cc2)c1C | 12.6
10 | COc1ccc(CCNC(=O)C2CCN(S(=O)(=O)c3cccc4cccnc34)CC2)cc1OC | 22.1
11 | Nc1nnc(N2CCc3ccccc32)s1 | 12.8
12 | CC1CCc2nc(N)c(C#N)c(-c3cccnc3)c2C1 (centres unmarked) | -2.94
13 | O=C(COC(=O)/C=C/c1cccs1)NC(=O)Cc1ccccc1 | 7.91
14 | COc1ccc(NC(=O)c2cc3cc(C)ccc3n2C)c(OC)c1 | 10.7
15 | COc1ccc(N(CC(=O)NC2CCCC2)C(=O)CCC(=O)Nc2cc(C)on2)cc1 | 10
16 | Cc1cccc(NC(=O)c2sc3nc4c(c(-c5ccco5)c3c2N)CCC4)c1 | 5.23
17 | Cc1ccc(-c2cc(C(=O)NCCc3ccccn3)c3ccccc3n2)c(C)c1 | -13.8
18 | CCCCn1c(NS(=O)(=O)c2ccccc2)c(C(=O)OCC)c2nc3ccccc3nc21 | 3.53
19 | COc1cccc(CN2CC(C(=O)NCCN3CCOCC3)CCC2=O)c1 (centres unmarked) | 0.381

Row | SMILES | hERG current change (%, negative = inhibition) at 1uM [%]
20 | Cc1cccc(CSCCNC(=S)Nc2ccccc2)c1 | 17.6
21 | COc1ccc(S(=O)(=O)Cc2ccc(C(=O)NCc3ccccn3)o2)cc1 | 9.71
22 | CCn1c(CNC(=O)c2ccccc2)nnc1SCC(=O)N1CCN(c2ccccc2)CC1 | 8.85
23 | O=C1/C(=C/c2ccncc2)SC(=S)N1Nc1ccccc1 | 14.8
24 | C=CCN1C(=O)/C(=C\c2ccc(Cl)cc2)N=C1SCC(=O)NC1CCCCC1 | 6.35
25 | CCN1CCN(C(=S)Nc2sc(C)c(-c3ccccc3)c2C(=O)OC)CC1 | 8.08
26 | Cc1nc(SCC(=O)N(C)C2CCCCC2)[nH]c(=O)c1Cc1ccccc1 | 0.827
27 | Cc1cccc(CSc2ccc3nnc(-c4cccnc4)n3n2)c1 | -16
28 | CN(C)CCCN(Cc1ccccc1)C(=S)Nc1ccc(F)c(Cl)c1 | 14.1
29 | COc1ccccc1C(=O)Oc1ccc2c(c1)O/C(=C\c1ccncc1)C2=O | 18
30 | O=C(NC(=S)Nc1ccccc1N1CCCCC1)c1ccc(-c2cccc([N+](=O)[O-])c2)o1 | 15.6
31 | O=C(Nc1ccc(C(=O)N2CCOCC2)cc1)c1cccc([N+](=O)[O-])c1 | 17.5
32 | CCN1CCN(C(=O)/C=C/c2ccc(F)cc2)CC1 | -13.1
33 | O=C(CS(=O)(=O)c1cccc(C(F)(F)F)c1)Nc1ccccc1Cl | 10.3
34 | COc1ccc(CN2C(=S)NC(C)(C)CC2(C)O)cc1 (centres unmarked) | 4.01
35 | CSc1nc(C)c(C(=O)C[n+]2ccccc2)cc1C#N.[Br-] | 8.95
36 | Cc1ccccc1Oc1ccc(-c2nc(N)nc(N)n2)cc1 | 8.6
37 | COCCn1c(N2CCCC2)nc2c1c(=O)[nH]c(=O)n2C | 12.8
38 | Cc1cc(=O)n2nc(N3CCCC(C(=O)NCCCN4CC(C)CC(C)C4)C3)sc2n1 (centres unmarked) | 17.6

Row | SMILES | hERG current change (%, negative = inhibition) at 1uM [%]
39 | O=C(CCCn1c(=O)[nH]c2cc(Cl)ccc2c1=O)NCCCN1CCCC1 | 18.3
40 | O=C(COC(=O)c1ccc(Cl)cc1O)NCCN1C(=O)CSC1=O | 8.58
41 | CN(CC(=O)Nc1ccc(Cl)c(C(F)(F)F)c1)C(=O)c1ccc2c(c1)OCCO2 | 9.24
42 | Cc1cc([N+](=O)[O-])nn1CC(=O)Nc1nccs1 | 12.7
43 | Cc1ccc(N(CC2CO2)S(=O)(=O)c2ccc(C)cc2)cc1 (centres unmarked) | 15.3
44 | O=C(Nc1ccnn1C1CCN(Cc2ccccc2OCCO)CC1)c1cccc(F)c1 | -6.97
45 | Cc1nn(-c2ccccc2)c(-c2ccccc2[N+](=O)[O-])c1C(=O)O | 15.2
46 | CCC(C)(C)c1nnc(NC(=O)c2ccc([N+](=O)[O-])cc2)s1 | 9.08
47 | CN(C)c1nc(-c2cn(CCC#N)c3ccccc23)cs1 | 14.4
48 | CN(CCc1ccccn1)C(=O)CCC1CCCN(C(=O)c2n[nH]c3c2CCCC3)C1 (centres unmarked) | 9.5
49 | O=C(NC(=S)Nc1ccc(CN2CCOCC2)cc1)c1ccc(-c2ccc(Cl)cc2)o1 | 8.7
50 | CCNC(=O)N1CCN(S(=O)(=O)c2ccc3c(c2)OCCCO3)CC1 | 6.9
51 | Cc1cc(C)c2nc(Cl)c(Cl)nc2c1 | 11.7
52 | CC(=O)c1cccc(N=C2C(=O)Nc3ccccc32)c1 | 0.588
53 | COc1ccc([N+](=O)[O-])c(OC)c1C(=O)NC(=O)Nc1c(F)cc(F)cc1F | 14.4
54 | c1cncc(CNC2=NCCC2)c1 | 13.8
55 | NS(=O)(=O)c1ccc(CCNC(=O)COC(=O)C2CCCN2C(=O)c2cccs2)cc1 (centres unmarked) | 12.5
56 | CCCN1CCc2c(sc(NC(=O)Cc3ccc(F)cc3)c2C(N)=O)C1.Cl | -7.81
